Laboratory results taken from the supplement of paper PMC4967469.

Columns and labels:
Assay in all cases: Viability of human cancer cell lines after 72 h of drug (GDSC screen)
LFM-A13 = compound: C/C(O)=C(\C#N)C(=O)Nc1cc(Br)ccc1Br [LFM-A13]; conditions: top dose 16 µM; top dose inferred
Description: (§1)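 Human cancer cell lines in 384-well plates, medium with 10% serum, drug for 72 h over a 256-fold dose range (nine 2-fold or five 4-fold steps up to the top dose). Adherent lines were fixed and stained with the nucleic acid dye Syto60, suspension lines read with resazurin; signal relative to control wells, capped at 0 and 100%. One two-parameter sigmoid per drug and line, fitted in a mixed model over all curves with the slope shared within a line.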

TW-37 = compound: CC(C)c1ccccc1Cc1cc(C(=O)Nc2ccc(S(=O)(=O)c3ccccc3C(C)(C)C)cc2)c(O)c(O)c1O [TW-37]; conditions: top dose 5 µM
Description: as §1

Bicalutamide = compound: CC(O)(CS(=O)(=O)c1ccc(F)cc1)C(=O)Nc1ccc(C#N)c(C(F)(F)F)c1 [Bicalutamide]; conditions: top dose inferred
Description: as §1

AUY922 = compound: CCNC(=O)c1noc(-c2cc(C(C)C)c(O)cc2O)c1-c1ccc(CN2CCOCC2)cc1 [AUY922]; conditions: top dose 0.256 µM; top dose inferred
Description: as §1

KIN001-270 = compound: Cc1ccc(Nc2cc(-c3cccc(N4C(=O)c5ccccc5C4=O)c3)ncn2)cc1NS(C)(=O)=O [KIN001-270]; conditions: top dose 20 µM; top dose inferred
Description: as §1

Nilotinib = compound: Cc1cn(-c2cc(NC(=O)c3ccc(C)c(Nc4nccc(-c5cccnc5)n4)c3)cc(C(F)(F)F)c2)cn1 [Nilotinib]; conditions: top dose 2 µM
Description: as §1

GNF-2 = compound: NC(=O)c1cccc(-c2cc(Nc3ccc(OC(F)(F)F)cc3)ncn2)c1 [GNF-2]; conditions: top dose 1.28 µM; top dose inferred
Description: as §1

Gemcitabine = compound: Nc1ccn([C@@H]2O[C@H](CO)[C@@H](O)C2(F)F)c(=O)n1 [Gemcitabine]; conditions: top dose 1.024 µM
Description: as §1

T0901317 = compound: O=S(=O)(c1ccccc1)N(CC(F)(F)F)c1ccc(C(O)(C(F)(F)F)C(F)(F)F)cc1 [T0901317]; conditions: top dose 10.24 µM; top dose inferred
Description: as §1

MP470 = compound: S=C(NCc1ccc2c(c1)OCO2)N1CCN(c2ncnc3c2oc2ccccc23)CC1 [MP470]; conditions: top dose 20 µM; top dose inferred
Description: as §1

[1] = top dose 1.024 µM, screen: GDSC drug entry 150
[2] = top dose 10 µM, screen: GDSC drug entry 1502

NB13 (neuroblastoma, adherent)
AUC (LFM-A13): 0.98 | IC50 (LFM-A13): > 16000 nM | AUC (TW-37): 0.38 | IC50 (TW-37): 152 nM | AUC (Bicalutamide; [1]): 0.984 | IC50 (Bicalutamide; [1]): > 1020 nM | AUC (Bicalutamide; [2]): 0.99 | IC50 (Bicalutamide; [2]): > 10000 nM | AUC (AUY922): 0.53 | IC50 (AUY922): 19.1 nM | AUC (KIN001-270): 0.87 | IC50 (KIN001-270): 15000 nM | AUC (Nilotinib): 0.99 | IC50 (Nilotinib): > 2000 nM | AUC (GNF-2): 0.989 | IC50 (GNF-2): > 1280 nM | AUC (Gemcitabine): 0.441 | IC50 (Gemcitabine): 44.9 nM | AUC (T0901317): 0.983 | IC50 (T0901317): > 10200 nM | AUC (MP470): 0.948 | IC50 (MP470): > 20000 nM

CESS (acute myeloid leukaemia, suspension)
AUC (LFM-A13): 0.965 | IC50 (LFM-A13): > 16000 nM | AUC (TW-37): 0.562 | IC50 (TW-37): 449 nM | AUC (Bicalutamide; [1]): 0.989 | IC50 (Bicalutamide; [1]): > 1020 nM | AUC (Bicalutamide; [2]): 0.988 | IC50 (Bicalutamide; [2]): > 10000 nM | AUC (AUY922): 0.552 | IC50 (AUY922): 21.7 nM | AUC (KIN001-270): 0.987 | IC50 (KIN001-270): > 20000 nM | AUC (Nilotinib): 0.991 | IC50 (Nilotinib): > 2000 nM | AUC (GNF-2): 0.991 | IC50 (GNF-2): > 1280 nM | AUC (Gemcitabine): 0.323 | IC50 (Gemcitabine): 22.3 nM | AUC (T0901317): 0.92 | IC50 (T0901317): > 10200 nM | AUC (MP470): 0.899 | IC50 (MP470): 19000 nM

CCRF-CEM (lymphoblastic leukaemia, suspension)
AUC (LFM-A13): 0.96 | IC50 (LFM-A13): > 16000 nM | AUC (TW-37): 0.405 | IC50 (TW-37): 180 nM | AUC (Bicalutamide; [1]): 0.989 | IC50 (Bicalutamide; [1]): > 1020 nM | AUC (Bicalutamide; [2]): 0.989 | IC50 (Bicalutamide; [2]): > 10000 nM | AUC (AUY922): 0.509 | IC50 (AUY922): 16.9 nM | AUC (KIN001-270): 0.979 | IC50 (KIN001-270): > 20000 nM | AUC (Nilotinib): 0.922 | IC50 (Nilotinib): > 2000 nM | AUC (GNF-2): 0.989 | IC50 (GNF-2): > 1280 nM | AUC (Gemcitabine): 0.291 | IC50 (Gemcitabine): 18.5 nM | AUC (T0901317): 0.953 | IC50 (T0901317): > 10200 nM | AUC (MP470): 0.947 | IC50 (MP470): > 20000 nM

NKM-1 (acute myeloid leukaemia, suspension)
AUC (LFM-A13): 0.969 | IC50 (LFM-A13): > 16000 nM | AUC (TW-37): 0.469 | IC50 (TW-37): 256 nM | AUC (Bicalutamide; [1]): 0.976 | IC50 (Bicalutamide; [1]): > 1020 nM | AUC (Bicalutamide; [2]): 0.969 | IC50 (Bicalutamide; [2]): > 10000 nM | AUC (AUY922): 0.343 | IC50 (AUY922): 5.76 nM | AUC (KIN001-270): 0.953 | IC50 (KIN001-270): > 20000 nM | AUC (Nilotinib): 0.806 | IC50 (Nilotinib): 1050 nM | AUC (GNF-2): 0.977 | IC50 (GNF-2): > 1280 nM | AUC (Gemcitabine): 0.044 | IC50 (Gemcitabine): < 4 nM | AUC (T0901317): 0.884 | IC50 (T0901317): > 10200 nM | AUC (MP470): 0.929 | IC50 (MP470): > 20000 nM

OCI-AML2 (acute myeloid leukaemia, suspension)
AUC (LFM-A13): 0.993 | IC50 (LFM-A13): > 16000 nM | AUC (TW-37): 0.548 | IC50 (TW-37): 410 nM | AUC (Bicalutamide; [1]): 0.995 | IC50 (Bicalutamide; [1]): > 1020 nM | AUC (Bicalutamide; [2]): 0.994 | IC50 (Bicalutamide; [2]): > 10000 nM | AUC (AUY922): 0.406 | IC50 (AUY922): 9.47 nM | AUC (KIN001-270): 0.951 | IC50 (KIN001-270): > 20000 nM | AUC (Nilotinib): 0.995 | IC50 (Nilotinib): > 2000 nM | AUC (GNF-2): 0.995 | IC50 (GNF-2): > 1280 nM | AUC (Gemcitabine): 0.115 | IC50 (Gemcitabine): 6.43 nM | AUC (T0901317): 0.959 | IC50 (T0901317): > 10200 nM | AUC (MP470): 0.577 | IC50 (MP470): 1920 nM

HCC2157 (breast, suspension)
AUC (LFM-A13): 0.917 | IC50 (LFM-A13): > 16000 nM | AUC (TW-37): 0.585 | IC50 (TW-37): 541 nM | AUC (Bicalutamide; [1]): 0.986 | IC50 (Bicalutamide; [1]): > 1020 nM | AUC (Bicalutamide; [2]): 0.986 | IC50 (Bicalutamide; [2]): > 10000 nM | AUC (AUY922): 0.671 | IC50 (AUY922): 49.2 nM | AUC (KIN001-270): 0.956 | IC50 (KIN001-270): > 20000 nM | AUC (Nilotinib): 0.895 | IC50 (Nilotinib): > 2000 nM | AUC (GNF-2): 0.985 | IC50 (GNF-2): > 1280 nM | AUC (Gemcitabine): 0.884 | IC50 (Gemcitabine): > 1020 nM | AUC (T0901317): 0.963 | IC50 (T0901317): > 10200 nM | AUC (MP470): 0.848 | IC50 (MP470): 16000 nM

The IC50 comes from the fitted curve, where viability falls to half of the control; fits outside the tested doses are given as limits. AUC, from the same fit, is the share of area under the viability curve across the 256-fold dose range; it is 1 without any effect and falls as sensitivity rises. For part of these data: A top dose marked as inferred is not printed in the source and was worked back from the curve model. For part of these data: An entry number marks a drug with two screens in the source, which often give different values.
